Reference: PubChem BioAssay AID1458 (National Center for Advancing Translational Sciences (NCATS), 2008)
The campaign covered roughly 210,000 compounds. About 5,900 (2.8%) were called active. This list was built around the results that the source calls inconclusive (neither active nor inactive); the mix of calls is not that of the screen. Calls come from the whole dose curve; as a rule, active = well fitted activation curve with a large enough effect; inconclusive = small, poorly fitted or top-dose-only effect; inactive = no such curve, though single readings can be large or run the other way. Potencies of inconclusive entries are doubtful fits and often do not repeat.
Potency is the fitted concentration of half-maximal effect; tags give direction and shape of the fitted curve.

Test: qHTS Assay for Enhancers of SMN2 Splice Variant Expression; note: nearly all actives have a fitted effect of over 55% in size; for activity change, positive = activation: % of control where 0% means no effect
Details: HEK293 SMN2-luciferase splicing reporter, luminescence, 30-36 h; activity change, positive = activation: at 46.1 µM (top of the series)
In short: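 HEK293 cells carry an SMN2 minigene-luciferase reporter in which exon 7 inclusion puts luciferase in frame. Cells were seeded at 2000 cells/well, attached for 10-12 hours, then exposed to compounds for 30-36 hours at 37C before ONE-Glo luminescence.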
For `O=c1cc(N2CCc3ccccc3C2)[nH]c(=O)n1C1CCCCC1`, the Potency was inconclusive: 5.62 µM [activator, single point]. With `Cc1ccc(Cl)cc1N1CCN(S(=O)(=O)c2ccc3oc(=O)c4ncn(C)c4c3c2)CC1` the “activity change, positive = activation” value was inactive: -13.1%. In the case of `CC(C)Oc1cccc(C(=O)NC(=S)Nc2ccccc2)c1`, the Potency is reported as active: 11.2 µM. With `COC(=O)COc1cccc(NC(=O)c2cccc(C)c2)c1` the “activity change, positive = activation” value was inactive: 7.58%. With `COc1ccccc1CNC(=O)C(=O)NCC1OCCN1C(=O)c1cccs1` (centres undefined) the “activity change, positive = activation” value was inactive: 10.2%. In the case of `COc1ccc(CN2CCC(C(=O)N(C)CCc3ccc(OC)c(OC)c3)CC2)c(OC)c1`, the Potency is reported as inconclusive: 5.62 µM [activator, single point]. For `CC(=O)c1ccc(NC(=O)/C=C/c2ccc(C)o2)cc1`, the Potency was active: 12.6 µM. For `Cc1sc2nc(SCC(=O)N3CCOCC3)[nH]c(=O)c2c1C`, the Potency was inconclusive: 0.0794 µM [activator, full curve, poor fit]. In the case of `COC(=O)c1ccc(NC(=O)c2ccco2)cc1`, the Potency is reported as inconclusive: 14.1 µM [activator, single point]. In the case of `COc1ccccc1N1CCN(C(=O)CCCCCn2c(=O)[nH]c3ccsc3c2=O)CC1`, the “activity change, positive = activation” value is reported as inactive: -13%. For `COc1cccc(/C=C2\SC(=S)N(N3C(=O)CCCC3=O)C2=O)c1`, the “activity change, positive = activation” value was inactive: 11.5%. In the case of `CCN(CC)c1ccc(NC(=O)CN2C(=O)CSc3ncccc32)c(C)c1`, the “activity change, positive = activation” value is reported as inactive: -73.5%. In the case of `CCC(=O)Nc1ccc(OCc2nc3ccccc3s2)cc1`, the Potency is reported as active: 5.01 µM. In the case of `O=C(Nc1ccc2nsnc2c1)NC1CCCCC1`, the Potency is reported as inconclusive: 14.1 µM [activator, single point]. With `Clc1ccc2[nH]c(-c3ccccc3)cc2c1` the Potency was inconclusive: 11.2 µM [activator, partial curve]. For `O=C(Cn1cnc2ccccc2c1=O)NCC(=O)N1CCN(c2ccccn2)CC1`, the Potency was inconclusive: 0.141 µM [activator, full curve]. With `Cc1cc(OCc2cn3cccnc3n2)ccc1Cl` the Potency was active: 11.2 µM. With `O=C(c1ccncc1)N1CCC[C@@]2(CCN(Cc3ccncc3)C2)C1` the “activity change, positive = activation” value was inactive: -6.96%. In the case of `CCOc1ccc2nc(NC(=O)CS(=O)(=O)c3ccc(C)cc3)sc2c1`, the “activity change, positive = activation” value is reported as inactive: 8.95%. In the case of `CCCn1nc(NC(=O)c2cccs2)c2cc3ccccc3nc21`, the “activity change, positive = activation” value is reported as inactive: -22.2%. With `NC(=O)c1ccccc1NC(=O)/C=C/c1ccccc1` the Potency was inconclusive: 0.398 µM [activator, partial curve, poor fit]. With `Cc1c(C(=O)O)cccc1-n1c(C)cc(/C=N/NC(=O)c2cc3ccccc3o2)c1C` the Potency was inconclusive: 0.282 µM [activator, partial curve]. For `O=C(NCc1cccc(F)c1)c1ccc2nc(N3CCCCC3)sc2c1`, the Potency was inconclusive: 6.31 µM [activator, full curve]. In the case of `Nc1nc(N)c2sc3nc4c(cc3c2n1)CCC4`, the Potency is reported as inconclusive: 0.005 µM [activator, full curve, poor fit]. In the case of `Cc1cc(/C=N/NC(=O)COc2cccc3cccnc23)c(C)n1-c1ccc(O)cc1`, the Potency is reported as inconclusive: 35.5 µM [activator, single point]. With `COc1ccc(N2Nc3n[nH]c(N)c3N2)cc1` the Potency was inconclusive: 14.1 µM [activator, single point]. In the case of `CCc1ccc(NC(=S)NC(=O)CC(C)C)cc1`, the Potency is reported as active: 8.91 µM. For `C[N+](C)(C)c1cc2c(nn1)Nc1ccccc1S2`, the Potency was inconclusive: 2.82 µM [activator, partial curve]. For `Fc1ccc(-c2cc(C(F)(F)F)nc(NCc3ccccc3)n2)cc1`, the Potency was inconclusive: 35.5 µM [activator, partial curve, poor fit]. In the case of `Cc1ccccc1-c1n[nH]c(=S)n1/N=C/c1ccc(-c2ccccc2Br)o1`, the Potency is reported as inconclusive: 7.94 µM [activator, single point]. In the case of `O=C(c1ccc2c(c1)N(Cc1ccc(F)cc1)C(=O)c1ccccc1S2(=O)=O)N1CCN(c2ccccn2)CC1`, the Potency is reported as inconclusive: 35.5 µM [activator, single point]. With `C=CCC(CC=C)(NC(=O)c1ccccc1C)c1ccccc1` the Potency was inconclusive: 4.47 µM [activator, single point]. For `Cc1cccc(OCC(=O)NCC(=O)n2nc(C)cc2C)c1`, the Potency was inconclusive: 0.0141 µM [activator, full curve, poor fit]. In the case of `CCOC(=O)c1c(NC(=O)C(C)Sc2cn(CCNC(=O)c3ccccc3OC)c3ccccc23)sc2c1CCC2` (centres undefined), the “activity change, positive = activation” value is reported as inactive: 2.42%. With `COc1ccc(C2c3c4c(n(C)c3CCN2C)CCN(C)C4c2ccc(OC)cc2)cc1` (centres undefined) the Potency was inconclusive: 10 µM [activator, partial curve, poor fit]. With `Cc1cccc(/C=N/N2CCN(c3ccccc3)CC2)c1` the Potency was active: 17.8 µM. With `CC(C)(C)C(=O)CSc1nnc(Nc2ccccc2)s1` the Potency was inconclusive: 35.5 µM [activator, single point]. With `CN(C)/C=N/c1cc(=O)n(C)c(=O)n1Cc1ccccc1` the Potency was inconclusive: 10 µM [activator, partial curve, poor fit]. For `O=c1c2ccccc2ncn1-c1ccc(Cl)c(Cl)c1`, the Potency was inconclusive: 35.5 µM [activator, single point]. With `CCC(=O)c1cc2c(cc1NC(=O)c1ccc(C)cc1)OCCO2` the Potency was inconclusive: 5.01 µM [activator, partial curve, poor fit]. For `CNc1nc(OC)nc(N2CCOCC2)n1`, the Potency was inconclusive: 3.16 µM [activator, full curve]. With `Cc1nn(Cc2ccccc2)c(C)c1/C=N/NC(=O)c1cccnc1` the Potency was inconclusive: 0.0224 µM [activator, full curve, poor fit]. With `Cc1cnn(C(=S)NCCc2ccccc2)c1` the Potency was inconclusive: 35.5 µM [activator, single point]. For `CCN(CC(=O)Nc1cccc(C(C)=O)c1)S(=O)(=O)c1ccc(OC)cc1`, the Potency was inconclusive: 4.47 µM [activator, partial curve]. For `O=C1NC(=Nc2ccccc2)c2c1cccc2[N+](=O)[O-]`, the Potency was inconclusive: 2.24 µM [activator, partial curve, poor fit]. With `N#C/C(=C\c1ccc(OC(=O)c2cccs2)cc1)c1nc2ccccc2[nH]1` the Potency was active: 11.2 µM. With `COc1ccc2c(c1)O[C@H](c1ccc3c(c1)OCO3)[C@@H](OC(=O)NCCOc1ccccc1)C2=O` the “activity change, positive = activation” value was inactive: 6.53%. With `CCCc1nc2c(=O)n(C)c(=O)[nH]c2n1CCC` the “activity change, positive = activation” value was inactive: 3.08%. For `O=C(Nc1ccc(N2CCCC2)cc1)c1ccccc1F`, the Potency was active: 2.82 µM. With `Cc1ccc(NC(=O)COc2ccccc2[N+](=O)[O-])nc1` the Potency was active: 2.82 µM. For `Cc1cccc(-n2c(-c3ccccc3)cn3c4c(=O)[nH]c(=O)n(C)c4nc23)c1`, the Potency was inconclusive: 4.47 µM [activator, partial curve]. With `COCCSc1nc2c(c(=O)[nH]c(=O)n2C)n1Cc1cccc(C)c1` the Potency was inconclusive: 22.4 µM [activator, single point]. In the case of `Cc1ccccc1NC(=O)c1cccc(C(F)(F)F)c1`, the “activity change, positive = activation” value is reported as inactive: 4.15%. For `N/C(COc1ccc(Cl)cc1Cl)=N\NS(=O)(=O)c1ccccc1`, the Potency was inconclusive: 11.2 µM [activator, partial curve, poor fit]. With `COc1ccc(-c2cc(C(=O)NCC(C)C)no2)cc1` the Potency was active: 11.2 µM. In the case of `CCCCN(CC)CCNC(=O)c1cc2c(=O)oc3ccc(C)cc3c2s1`, the “activity change, positive = activation” value is reported as inactive: 7.26%. With `CCOc1ccc2nc(NC(=O)CSc3nnnn3C3CCCCC3)sc2c1` the Potency was inconclusive: 35.5 µM [activator, single point]. With `CCOc1ccc2nc(NC(=O)c3ccc(OCC4CCCO4)cc3)sc2c1` (centres undefined) the Potency was inconclusive: 35.5 µM [activator, single point]. With `CCCCCC(/C=N/Nc1ccc(S(=O)(=O)N2CCOCC2)cc1[N+](=O)[O-])=C\c1ccccc1` the “activity change, positive = activation” value was inactive: -31.6%. For `O=C(OC1CCCCC1)c1ccc(NC(=O)c2ccco2)cc1`, the Potency was inconclusive: 22.4 µM [activator, single point]. With `O=S(=O)(O)c1ccccc1` the Potency was inconclusive: 11.2 µM [activator, partial curve]. In the case of `CCc1cc2c(=O)n(-c3ccc(C)cc3)cnc2s1`, the Potency is reported as active: 3.16 µM. With `Cc1cc(=O)[nH]c(SCCCOc2ccccc2Cl)n1` the “activity change, positive = activation” value was inactive: -2.53%. With `CCc1ccc(NC(=O)c2onc(C)c2Cl)cc1` the Potency was active: 14.1 µM. With `Cc1cc(C)n2nc(SCc3ncc(-c4ccccc4)o3)nc2n1` the Potency was inconclusive: 0.01 µM [activator, full curve, poor fit]. With `Cc1ccc(Nc2nc(-c3cccs3)cs2)nc1` the Potency was active: 1.41 µM. For `COC(=O)[C@@]1(Cc2ccc(OC)cc2)[C@H]2c3cc(C(=O)N(C)C)n(C[C@H](O)CO)c3C[C@H]2CN1C(=O)c1ccccc1`, the Potency was inconclusive: 0.891 µM [activator, partial curve, poor fit]. In the case of `CN1C2CCC1CC(OC(=O)c1c[nH]c3ccccc13)C2` (centres undefined), the Potency is reported as inconclusive: 0.02 µM [activator, full curve, poor fit]. With `Cc1ccc(C(=O)NCCN(C)C)c(C)c1` the Potency was inconclusive: 0.398 µM [activator, full curve]. For `CCn1cc(C(=O)Nc2cccc(C)c2)c(=O)c2ccc(C)nc21`, the “activity change, positive = activation” value was inactive: -5.91%. With `CCC(C)/C(C)=N/NC(=O)c1ccc(COc2ccc(Cl)c(C)c2)cc1` (centres undefined) the Potency was inconclusive: 3.98 µM [activator, partial curve]. For `O=C(c1ccco1)N1CCN(c2nc3ccsc3c(=O)s2)CC1`, the “activity change, positive = activation” value was inactive: 23.3%. In the case of `Cc1ccc(C(=O)CSc2nnc(-c3cccnc3)n2N)cc1`, the Potency is reported as inconclusive: 11.2 µM [activator, single point]. With `COc1ccc(C2c3c(oc4ccc(F)cc4c3=O)C(=O)N2Cc2ccc3c(c2)OCO3)cc1` (centres undefined) the “activity change, positive = activation” value was inactive: -0.784%.
